Data as given in the supplement of paper PMC3334620.
The full ranking holds about 33,000 sequences; the median of “E-score (-0.5 to 0.5)” is about -0.036, and the highest 2% start at about 0.37. This is one part of the list.

Molecular target: T1, Yer064c (UniProt P40041)
T1 sequence: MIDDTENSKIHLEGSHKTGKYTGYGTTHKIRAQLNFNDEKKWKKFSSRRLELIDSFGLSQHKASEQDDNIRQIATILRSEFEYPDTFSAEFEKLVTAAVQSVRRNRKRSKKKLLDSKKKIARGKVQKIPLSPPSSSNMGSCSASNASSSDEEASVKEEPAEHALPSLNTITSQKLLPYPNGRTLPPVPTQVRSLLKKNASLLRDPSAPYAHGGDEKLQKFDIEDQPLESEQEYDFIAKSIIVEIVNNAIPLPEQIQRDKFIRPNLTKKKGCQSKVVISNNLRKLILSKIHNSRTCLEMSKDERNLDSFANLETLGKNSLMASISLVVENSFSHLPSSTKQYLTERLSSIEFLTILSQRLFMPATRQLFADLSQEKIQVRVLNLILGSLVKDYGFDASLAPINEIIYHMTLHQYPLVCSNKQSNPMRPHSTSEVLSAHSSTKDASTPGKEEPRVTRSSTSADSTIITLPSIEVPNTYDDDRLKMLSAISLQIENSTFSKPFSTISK
Assay: PBM E-score (8-mer binding enrichment) (E-score (-0.5 to 0.5)); higher = stronger / more preferred TF binding; most listed sequences are background and not binding sites
Settings: protein concentration: 200 nM; construct: GST-full length
Summary of the method: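 Universal all-10-mer Agilent arrays, double-stranded by primer extension on fresh or once-stripped slides, were probed with about 100-200 nM GST-tagged yeast transcription factors made by PURExpress. Fluorescent anti-GST detected bound protein, and masliner normalised the scans. E-scores from the Universal PBM Analysis Suite were given to each ungapped eight-base word pooled with its reverse complement.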

Sequence	PBM E-score
CATGGTAC	-0.168
GGATGGGA	-0.112
AAGGCACA	-0.074
ACGTCAAG	-0.0851
GGTCATAA	0.081
CATCGAGG	-0.185
AGTGCCCC	-0.199
GTGCTCAA	-0.0327
CCTCCCCC	-0.224
ACGTGAAA	0.0132
CGCCATTC	-0.0225
ATCATGAT	0.378
TAGGGTAA	0.0676
ACCCACTA	0.0264
GGCGCGAC	0.216
AGAAAGTA	0.12
AAATGCCA	-0.316
CCGTGCAC	-0.198
AAGCGCAG	-0.226
ACGTGTAA	0.133
AGGCGGGG	-0.0194
CATTACCA	0.0233

Sequence	PBM E-score
ATCCTCCC	-0.107
CAAGGACC	-0.148
ACACTGTA	0.0363
CCTTACTA	0.013
TCTCTCCA	-0.0935
TCCCAGAA	0.00854
ATATTCGA	-0.17
ATTATTTA	0.137
AGCGTACC	-0.271
GTATGCGA	0.0503
TCGCCTCA	-0.0436
CCCGAATC	0.171
GATGTTAA	-0.135
AATCAATC	0.301
CTCCGTTA	-0.0127
ACAGATAA	-0.0819
ACAGTTAG	0.00184
AGAGTGTG	0.0751
GACTCGTA	0.419
ACACATAG	0.0887
CTTTACGC	0.0163
CAATCCAG	-0.149

Sequence	PBM E-score
CACTATGG	-0.105
AGCGTCAT	0.0509
CAAAGCGG	-0.0843
CGCAACTA	-0.0474
TCTGACAA	0.138
CCGTTCCA	-0.214
AGCTATTA	0.014
ATAATTCA	0.0758
GAAGGCGC	-0.375
GAGCCTAA	0.0125
CAAGAACC	-0.0183
TGCCGTAA	-0.0995
CGTTAACG	-0.0607
AAAGACCG	-0.163
CCGACCTA	-0.0879
GAAACTGA	0.0888
ATCGAGAT	-0.151
GCACTCCC	-0.147
TCGGTCAA	-0.00415
CGTCGCTA	-0.0862
CGCCTTGA	-0.0165
CTCCCCGA	-0.0625

Sequence	PBM E-score
ACATAAGT	0.168
GATTAAGC	0.253
AAACTTCA	0.00996
CAAATCTG	-0.0853
AATTTAGC	0.0562
ACGGCGAT	-0.0184
AAAGTTCT	-0.182
CACTACAA	0.0688
ACGCGACG	-0.164
CGACCTAA	-0.0186
CGAGTCTC	0.307
GTTTATAA	-0.0408
CAAGATTG	0.0192
CCTGCAGG	-0.0175
CATAGTCA	0.466
ACCCGTGC	0.114
CACCCCTC	-0.198
ATAACTAC	-0.0291
AGAAGAGG	-0.224
ATCGGTTA	0.212
